Source: the supplement of paper PMC4166925
± gives the standard deviation of the averaged measurements. Over roughly 33,000 sequences, “E-score (dimensionless, -0.5 to 0.5)” has its median near -0.046; the highest 2% begin near 0.36. Some of the results follow.

The sequences below were run on T1, SpTbr T-box DNA-binding domain (GST fusion) (assay: PBM E-score of 8-mer (E-score (dimensionless, -0.5 to 0.5)); Tbr is Tbrain of the sea star Patiria miniata (Pm) or the sea urchin Strongylocentrotus purpuratus (Sp); higher = stronger binding preference; most listed sequences are background and not binding sites). Conditions: the construct has about 5 more residues each side.
T1 sequence: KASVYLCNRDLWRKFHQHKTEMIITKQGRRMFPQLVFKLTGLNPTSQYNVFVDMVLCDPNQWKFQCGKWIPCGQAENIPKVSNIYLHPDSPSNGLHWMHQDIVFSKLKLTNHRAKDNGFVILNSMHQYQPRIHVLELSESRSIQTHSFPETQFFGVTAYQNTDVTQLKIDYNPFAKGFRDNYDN
Method in brief: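 GST-fused Tbr T-box DNA-binding domains (the whole T-box plus about five flanking residues) were expressed in BL21 E. coli at 20 °C and purified by glutathione affinity chromatography. Universal Agilent oligonucleotide arrays were made double-stranded by primer extension, incubated with 200 nM protein in PBS (pH 7.5), then scanned and quantified. Every ungapped 8-mer was scored from probe intensities. The Universal PBM Analysis Suite gave each word an enrichment E-score, averaged over duplicate arrays.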

| Sequence | PBM E-score of 8-mer |
| --- | --- |
| CTCATGTC | -0.152 ± 0.051 |
| AACGGCTT | 0.0898 ± 0.092 |
| AGCCATGG | -0.197 ± 0.03 |
| TACGGCTA | -0.131 ± 0.04 |
| ATCGGTTC | -0.0281 ± 0.04 |
| AGCCTTCC | -0.16 ± 0.026 |
| CAGATGAG | -0.226 ± 0.046 |
| AGAGCTGG | -0.174 ± 0.068 |
| GGGGCCAA | -0.108 ± 0.067 |
| GACTGTAA | 0.0175 ± 0.046 |
| GGAGCCCA | -0.193 ± 0.018 |
| GCCTTTGA | -0.263 ± 0.024 |
| GTAGTTAA | -0.0742 ± 0.023 |
| ACTTAGGA | -0.228 ± 0.026 |
| AGTAGATG | -0.13 ± 0.033 |
| CAGGCCAC | -0.16 ± 0.023 |
| AGCTCCGA | -0.0358 ± 0.0032 |
| CCGCTAAG | 0.123 ± 0.036 |
| CGGGCCCG | 0.118 ± 0.0044 |
| CAGACGCG | 0.106 ± 0.014 |
| ACCGGGAA | -0.00407 ± 0.018 |
| GGGAGTAA | -0.125 ± 0.03 |

| Sequence | PBM E-score of 8-mer |
| --- | --- |
| AGGGGTAC | -0.388 ± 0.0051 |
| CTATTCAA | -0.0432 ± 0.04 |
| GTGACACA | 0.403 ± 0.0044 |
| AGCTTGGC | -0.191 ± 0.011 |
| ACTCATTG | -0.195 ± 0.021 |
| AGCACGCG | 0.184 ± 0.084 |
| GTAGCCCA | -0.326 ± 0.024 |
| GCAGGGGA | -0.158 ± 0.0024 |
| AGCCTGGC | -0.0911 ± 0.098 |
| CGGAACGC | -0.0517 ± 0.0057 |
| CGGACCTC | -0.241 ± 0.032 |
| GCTATAGA | -0.117 ± 0.04 |
| CCGGAGTC | -0.22 ± 0.022 |
| AGTTTAAC | 0.061 ± 0.052 |
| GATGCGGC | -0.00677 ± 0.059 |
| CGAGACTA | -0.0467 ± 0.079 |
| CGCTTGGC | 0.0461 ± 0.027 |
| AGTAGACC | -0.227 ± 0.012 |
| CACCCCTA | 0.212 ± 0.022 |
| CTGCCTGC | -0.0472 ± 0.012 |
| CACCGCCG | 0.151 ± 0.1 |
| CAATATGA | -0.0419 ± 0.055 |

| Sequence | PBM E-score of 8-mer |
| --- | --- |
| ATACCCTA | -0.00277 ± 0.015 |
| AATCTCTA | -0.14 ± 0.0019 |
| CGTTGCAA | -0.0447 ± 0.069 |
| GCTAAGAC | 0.107 ± 0.024 |
| CTGTATCC | -0.308 ± 0.015 |
| CAAGCTCG | 0.179 ± 0.07 |
| ATAAACGC | -0.0649 ± 0.055 |
| CCGTTGGC | 0.114 ± 0.049 |
| AACGAGGT | 0.0562 ± 0.023 |
| GTGTTTTA | 0.153 ± 0.063 |
| CCTCCGGA | -0.273 ± 0.037 |
| CCGAGCAG | -0.248 ± 0.051 |
| AACACCAG | 0.317 ± 0.028 |
| ATTAACCA | -0.105 ± 0.04 |
| TAGGGGGA | -0.358 ± 0.076 |
| AACTGGTA | -0.149 ± 0.097 |
| TTTCAAAA | -0.319 ± 0.022 |
| TCAGCAGA | -0.0115 ± 0.056 |
| AGTACACT | -0.0848 ± 0.0016 |
| GTTCCGAA | -0.0971 ± 0.012 |
| ACGAGGCT | -0.0815 ± 0.027 |
| CTAATGGA | -0.23 ± 0.029 |

| Sequence | PBM E-score of 8-mer |
| --- | --- |
| CTATATTC | -0.11 ± 0.0049 |
| CCCCGATC | -0.114 ± 0.068 |
| GGGCATGA | -0.114 ± 0.095 |
| CGGTCTCA | 0.0133 ± 0.015 |
| GTCCCTCA | -0.0661 ± 0.0065 |
| AGTTAAAT | 0.0309 ± 0.029 |
| GTCAAGCA | 0.0528 ± 0.058 |
| TAAGTGGA | -0.154 ± 0.021 |
| AGTCGCTG | 0.00855 ± 0.018 |
| ATTCAACC | -0.292 ± 0.017 |
| ACAGTAAG | -0.0572 ± 0.039 |
| ATCTCCAA | -0.042 ± 0.011 |
| CCGGAAGC | -0.184 ± 0.0028 |
| TAACTGCA | -0.142 ± 0.029 |
| CTACAATA | -0.243 ± 0.05 |
| CGCTCGTA | -0.16 ± 0.05 |
| AAGTGAGA | 0.4 ± 0.018 |
| GCTACAAC | -0.103 ± 0.082 |
| TAGCGGGA | 0.129 ± 0.0016 |
| ATCATCAA | -0.0434 ± 0.035 |
